Out of some 4,800 compounds screened, about 410 (8.5%) showed an effect of 50% or more. The list shows a part of the results.
tested on: Plasmodium falciparum; test: Confirmatory screen in NF54 pLDH assay, in single point, at 2uM, 72h; type: functional, Erythrocyte; details: timepoint 72 hour

Row | Structure (SMILES) | % Inhibition
1 | [O-]c1c(-c2ccccc2)sc2[n+]1ccc1sc(-c3ccccc3)c([O-])[n+]12 | -16%
2 | CN(C)CCCNCc1ccccc1F | 10%
3 | COc1ccc(-c2nn3c(N4CCN(CC=Cc5ccccc5)CC4)cc(C)nc3c2C)cc1OC | 40%
4 | CC(C)(C)c1ccc(-c2ccc(C(=O)NCC3(O)CCOCC3)o2)cc1 | 5%
5 | COCCN(CC1CN(Cc2ccc(C)o2)CC1c1cccc(F)c1)C(=O)C(C)C (centres undefined) | -8%
6 | O=C1N[C@@H](CC(=O)N2CCN(c3ccccn3)CC2)C(O)=Nc2ccccc21 | 6%
7 | O=C(NCc1noc2c1CCCC2)NC[C@H]1CCCC1(F)F | 5%
8 | O=C(N[C@@H](Cc1ccccc1)C(=O)NC1CC1)c1cccnc1 | 6%
9 | Cc1ccc(N2CCN(C(=O)c3ccco3)[C@@H](C)C2=O)c(C)c1 | -11%
10 | Brc1ccc2c(c1)CN(Cc1c[nH]cn1)CCO2 | 4%
11 | c1csc(-c2noc(Cc3c[nH]c4ccccc34)n2)c1 | -5%
12 | CCCCCn1c(NCc2cc(Cl)ccc2O)nc2ccccc21 | 21%
13 | CCO[C@@H](C)C(=O)Nc1cnns1 | 2%
14 | COc1cc(OC)cc(C(=O)Nc2ccc3nc(N4CCC(C)CC4)cc(C)c3c2)c1 | 40%
15 | CCOc1cc(Cl)ccc1C(=O)NC1CCN(C[C@H]2CCOC2)CC1 | 5%
16 | O=S1(=O)N=C(n2ccnc2)c2ccccc21 | -17%
17 | C=CCNC(=O)CCC(=O)NCc1ccco1 | 13%
18 | N#Cc1cnc(NC2CC3CCC2C3)cn1 (centres undefined) | -7%
19 | COc1ccc(S(=O)(=O)N(CC(=O)N2CCN(Cc3ccc4c(c3)OCO4)CC2)C2CCCCC2)cc1OC | 6%
20 | Cc1nc(COC(=O)c2c[nH]nc2-c2c(F)cccc2F)no1 | 7%
21 | Cc1cc(C)n(NC(=O)CCn2nc(C(F)(F)F)c(Br)c2C2CC2)c(=O)c1 | 10%
22 | Cc1cccc(Cn2ccn3nc(-c4cccc5ccccc45)cc3c2=O)c1 | -6%
23 | Cc1cc(C)c(NC(=O)CN(C)C(=O)NCc2ccco2)c(C)c1 | -8%
24 | CCNC(=O)N1CCCC[C@@]1(C)c1noc(-c2ccc(F)cc2)n1 | 11%
25 | Cc1cc(NC(=O)c2c(C)sc3ncnc(N4CCCC4)c23)ccc1F | 7%
26 | COc1ccc(OC)c(Nc2cc(C)nc3nnnn23)c1 | -6%
27 | Cc1noc(C2CCN(CC(=O)Nc3ccccc3C(=O)NCC(C)C)CC2)n1 | 1%
28 | CC(C)(C)NC1=Nc2ccccc2N[C@]12CCCN(C(=O)COc1ccccc1)C2 | -15%
29 | CCS(=O)(=O)Nc1cc2c(C(C)=O)c(C)oc2cc1C | 7%
